The other results are listed elsewhere or left out. Read counts after selection give these values, which scatter widely. Each score is taken over the longer molecules that contain the sequence shown.
How the values were obtained:
Experiment in all cases: 6-mer SELEX enrichment z-score vs GST control; IMP3 is the RNA-binding protein IGF2BP3; higher = more enriched by binding
IMP3 KH1-4 = conditions: construct: KH1-4 (164-579); SELEX round: R4
Experimental: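 SELEX-seq with GST-tagged IMP3 KH1-4 (Pro164-Lys579) and an N40 RNA pool, round 4. 6-mer z-score of sequence-tag enrichment normalised to the corresponding GST SELEX round; RNA k-mers written as DNA (T for U).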

IMP3 KH1-2 = conditions: construct: KH1-2 (164-376); SELEX round: R4
Experimental: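 SELEX-seq with GST-tagged IMP3 KH1-2 (Pro164-Phe376) and an N40 RNA pool, round 4 (stringent 300/600 mM KCl washes). 6-mer z-score of sequence-tag enrichment normalised to the corresponding GST SELEX round; RNA k-mers written as DNA (T for U).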

IMP3 KH3-4 = conditions: construct: KH3-4 (377-579); SELEX round: R4
Experimental: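 SELEX-seq with GST-tagged IMP3 KH3-4 (Pro377-Lys579) and an N40 RNA pool, round 4. 6-mer z-score of sequence-tag enrichment normalised to the corresponding GST SELEX round; RNA k-mers written as DNA (T for U).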

IMP3 full-length = IMP3 full-length (UniProt O00425); conditions: construct: FL IMP3 (1-579); SELEX round: R4
Experimental: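 SELEX-seq with GST-tagged full-length IMP3 and an N40 RNA pool, round 4. Each 6-mer is scored as an enrichment z-score of sequence tags containing it, normalised to the matching GST SELEX round. RNA written as DNA (T = U).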

UniProt O00425, sequence (O00425 whole entry): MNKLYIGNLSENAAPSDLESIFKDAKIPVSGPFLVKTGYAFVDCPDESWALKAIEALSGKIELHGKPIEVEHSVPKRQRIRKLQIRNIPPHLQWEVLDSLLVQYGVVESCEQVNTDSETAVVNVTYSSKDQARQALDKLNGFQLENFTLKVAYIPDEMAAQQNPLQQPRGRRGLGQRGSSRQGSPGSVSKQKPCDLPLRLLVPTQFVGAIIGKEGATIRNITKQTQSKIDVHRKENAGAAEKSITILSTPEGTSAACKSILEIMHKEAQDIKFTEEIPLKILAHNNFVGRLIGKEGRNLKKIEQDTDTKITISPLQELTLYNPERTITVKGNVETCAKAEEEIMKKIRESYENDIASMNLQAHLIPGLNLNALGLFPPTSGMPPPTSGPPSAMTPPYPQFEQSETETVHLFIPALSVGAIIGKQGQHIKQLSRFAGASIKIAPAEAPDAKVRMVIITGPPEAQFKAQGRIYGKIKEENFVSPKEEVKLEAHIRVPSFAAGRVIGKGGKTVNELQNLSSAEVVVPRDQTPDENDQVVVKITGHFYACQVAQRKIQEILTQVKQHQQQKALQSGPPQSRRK
IMP3 KH1-4, sequence (chain, as listed by the source): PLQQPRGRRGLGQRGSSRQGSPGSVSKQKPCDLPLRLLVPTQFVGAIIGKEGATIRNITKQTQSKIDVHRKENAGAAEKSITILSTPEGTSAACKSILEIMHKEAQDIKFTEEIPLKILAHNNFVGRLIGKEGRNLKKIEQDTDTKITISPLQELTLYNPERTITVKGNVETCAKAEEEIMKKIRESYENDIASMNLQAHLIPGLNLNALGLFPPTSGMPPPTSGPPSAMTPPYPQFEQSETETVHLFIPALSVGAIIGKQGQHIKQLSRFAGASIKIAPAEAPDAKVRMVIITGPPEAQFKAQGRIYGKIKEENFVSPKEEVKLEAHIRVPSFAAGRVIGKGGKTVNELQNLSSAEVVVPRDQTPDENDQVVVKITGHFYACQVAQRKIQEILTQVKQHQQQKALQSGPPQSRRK
IMP3 KH1-2, sequence (chain, as listed by the source): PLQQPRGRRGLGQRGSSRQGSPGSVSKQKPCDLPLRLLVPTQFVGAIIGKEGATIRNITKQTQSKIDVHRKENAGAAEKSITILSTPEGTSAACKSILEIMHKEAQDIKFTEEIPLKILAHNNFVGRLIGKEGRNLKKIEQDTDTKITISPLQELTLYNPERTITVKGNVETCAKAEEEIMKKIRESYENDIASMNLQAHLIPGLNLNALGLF
IMP3 KH3-4, sequence (chain, as listed by the source): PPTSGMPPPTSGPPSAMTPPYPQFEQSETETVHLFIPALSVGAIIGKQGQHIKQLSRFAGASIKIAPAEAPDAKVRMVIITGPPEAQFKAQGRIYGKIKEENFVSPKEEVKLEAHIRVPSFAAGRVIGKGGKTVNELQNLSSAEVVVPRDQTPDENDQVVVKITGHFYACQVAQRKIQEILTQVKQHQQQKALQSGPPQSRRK

GCTTGC
6-mer SELEX enrichment z-score (IMP3 KH1-4): -0.051 | 6-mer SELEX enrichment z-score (IMP3 KH1-2): 0.012 | 6-mer SELEX enrichment z-score (IMP3 KH3-4): -0.059

ATCAGT
6-mer SELEX enrichment z-score (IMP3 KH1-4): 0.819 | 6-mer SELEX enrichment z-score (IMP3 KH1-2): 0.557 | 6-mer SELEX enrichment z-score (IMP3 KH3-4): 0.53

TTGCCT
6-mer SELEX enrichment z-score (IMP3 KH1-4): -0.298 | 6-mer SELEX enrichment z-score (IMP3 KH1-2): -0.288 | 6-mer SELEX enrichment z-score (IMP3 KH3-4): -0.279

AAAGAG
6-mer SELEX enrichment z-score (IMP3 KH1-4): -1.14 | 6-mer SELEX enrichment z-score (IMP3 KH1-2): -1.18 | 6-mer SELEX enrichment z-score (IMP3 KH3-4): -0.226

ACCCGC
6-mer SELEX enrichment z-score (IMP3 KH1-4): -1.63 | 6-mer SELEX enrichment z-score (IMP3 KH1-2): -1.41 | 6-mer SELEX enrichment z-score (IMP3 KH3-4): -2.02

CGTGTT
6-mer SELEX enrichment z-score (IMP3 KH1-4): -0.381 | 6-mer SELEX enrichment z-score (IMP3 KH1-2): -0.376 | 6-mer SELEX enrichment z-score (IMP3 KH3-4): -0.253

CGCGTA
6-mer SELEX enrichment z-score (IMP3 KH1-4): -2.73 | 6-mer SELEX enrichment z-score (IMP3 full-length): -1.36 | 6-mer SELEX enrichment z-score (IMP3 KH3-4): -2.42

GTCCAG
6-mer SELEX enrichment z-score (IMP3 KH1-4): 0.038 | 6-mer SELEX enrichment z-score (IMP3 KH1-2): -0.106

CCCGAA
6-mer SELEX enrichment z-score (IMP3 KH1-4): -2.55 | 6-mer SELEX enrichment z-score (IMP3 full-length): -2.13 | 6-mer SELEX enrichment z-score (IMP3 KH3-4): -2.7

GGTTAA
6-mer SELEX enrichment z-score (IMP3 KH1-4): -0.107 | 6-mer SELEX enrichment z-score (IMP3 KH1-2): -0.203 | 6-mer SELEX enrichment z-score (IMP3 KH3-4): 0.132

ATCCAC
6-mer SELEX enrichment z-score (IMP3 KH1-4): -0.506 | 6-mer SELEX enrichment z-score (IMP3 KH1-2): -0.493 | 6-mer SELEX enrichment z-score (IMP3 KH3-4): -1.13

TCGAAA
6-mer SELEX enrichment z-score (IMP3 KH1-4): -1.58 | 6-mer SELEX enrichment z-score (IMP3 full-length): -1.48 | 6-mer SELEX enrichment z-score (IMP3 KH3-4): -1.38

CGTAGT
6-mer SELEX enrichment z-score (IMP3 KH1-4): -1.24 | 6-mer SELEX enrichment z-score (IMP3 full-length): -0.471 | 6-mer SELEX enrichment z-score (IMP3 KH3-4): -1.07

CATTCA
6-mer SELEX enrichment z-score (IMP3 KH1-4): 1.92 | 6-mer SELEX enrichment z-score (IMP3 KH1-2): 2.08

CTCGGC
6-mer SELEX enrichment z-score (IMP3 KH1-4): 0.129 | 6-mer SELEX enrichment z-score (IMP3 KH1-2): 0.114 | 6-mer SELEX enrichment z-score (IMP3 KH3-4): 0.067

CTGAGT
6-mer SELEX enrichment z-score (IMP3 KH1-4): -0.49 | 6-mer SELEX enrichment z-score (IMP3 KH1-2): -0.401 | 6-mer SELEX enrichment z-score (IMP3 KH3-4): -0.345

AGCGAC
6-mer SELEX enrichment z-score (IMP3 KH1-4): -1.51 | 6-mer SELEX enrichment z-score (IMP3 KH1-2): -1.36 | 6-mer SELEX enrichment z-score (IMP3 KH3-4): -1.45

TTCCTT
6-mer SELEX enrichment z-score (IMP3 KH1-4): 1.07 | 6-mer SELEX enrichment z-score (IMP3 KH1-2): 1.05 | 6-mer SELEX enrichment z-score (IMP3 KH3-4): 0.793

CAGCTC
6-mer SELEX enrichment z-score (IMP3 KH1-4): -0.124 | 6-mer SELEX enrichment z-score (IMP3 full-length): 0.598 | 6-mer SELEX enrichment z-score (IMP3 KH3-4): -0.333

CATCCC
6-mer SELEX enrichment z-score (IMP3 KH1-4): -0.095 | 6-mer SELEX enrichment z-score (IMP3 KH1-2): -0.183 | 6-mer SELEX enrichment z-score (IMP3 KH3-4): -1.19

ACATCA
6-mer SELEX enrichment z-score (IMP3 KH1-4): 1.71 | 6-mer SELEX enrichment z-score (IMP3 KH1-2): 1.78

TTGGGT
6-mer SELEX enrichment z-score (IMP3 KH1-4): -0.033 | 6-mer SELEX enrichment z-score (IMP3 KH1-2): 0.099 | 6-mer SELEX enrichment z-score (IMP3 KH3-4): 0.269

AGGCAC
6-mer SELEX enrichment z-score (IMP3 KH1-4): 1.88 | 6-mer SELEX enrichment z-score (IMP3 full-length): 2.59 | 6-mer SELEX enrichment z-score (IMP3 KH3-4): 1.73

CAGAGT
6-mer SELEX enrichment z-score (IMP3 KH1-4): -0.49 | 6-mer SELEX enrichment z-score (IMP3 KH1-2): -0.476 | 6-mer SELEX enrichment z-score (IMP3 KH3-4): -0.463

TAAAAA
6-mer SELEX enrichment z-score (IMP3 KH1-4): -0.68 | 6-mer SELEX enrichment z-score (IMP3 full-length): -2.53 | 6-mer SELEX enrichment z-score (IMP3 KH3-4): 1.09

TGAAGC
6-mer SELEX enrichment z-score (IMP3 KH1-4): -0.516 | 6-mer SELEX enrichment z-score (IMP3 full-length): -0.545 | 6-mer SELEX enrichment z-score (IMP3 KH3-4): -0.465

TTGATT
6-mer SELEX enrichment z-score (IMP3 KH1-4): 0.677 | 6-mer SELEX enrichment z-score (IMP3 KH1-2): 0.472 | 6-mer SELEX enrichment z-score (IMP3 KH3-4): 0.989

TGTACG
6-mer SELEX enrichment z-score (IMP3 KH1-4): -0.058 | 6-mer SELEX enrichment z-score (IMP3 KH1-2): -0.22 | 6-mer SELEX enrichment z-score (IMP3 KH3-4): -0.123

GAAGAA
6-mer SELEX enrichment z-score (IMP3 KH1-4): 0.802 | 6-mer SELEX enrichment z-score (IMP3 KH1-2): 0.454 | 6-mer SELEX enrichment z-score (IMP3 KH3-4): 1.35

CATGGT
6-mer SELEX enrichment z-score (IMP3 KH1-4): 0.208 | 6-mer SELEX enrichment z-score (IMP3 full-length): 0.58 | 6-mer SELEX enrichment z-score (IMP3 KH3-4): 0.108

GTTGGA
6-mer SELEX enrichment z-score (IMP3 KH1-4): -0.152 | 6-mer SELEX enrichment z-score (IMP3 KH1-2): -0.11 | 6-mer SELEX enrichment z-score (IMP3 KH3-4): 0.015
